Experimental data from PubChem BioAssay (NCI).
Where “and” joins values, the source holds several entries; their conditions need not be identical. Equal values may be shown once.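 Dose response: 5 concentrations. Exposure: 48 h. Format: 96-well plates. Endpoint: linear interpolation; highest concentration if not reached. The concentration for 50% growth inhibition is given as GI50. TGI denotes the concentration required for complete inhibition of growth.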

Test system: NCI-H322M lung
Test: NCI anticancer screen, dose series, 48 h

Compound	TGI	GI50
O=C1CCCCC/C1=C\c1ccc([N+](=O)[O-])cc1	> 100 µM	
CC(=O)N1CC(C)(C)c2c(C)c(O)c(C)c(C)c21	> 100 µM	
Cc1ccccc1C1OC(=O)c2ccc3ccccc3c21 (stereo not drawn)	13.7 µM	
OC1(c2ccccc2)CCN(Cc2c[nH]c3ccccc23)CC1	> 100 µM	
C=C(C(N)=O)c1ccc([N+](=O)[O-])o1	79.7 µM	
NC(=O)CN(CC(N)=O)C(N)=O	> 100 µM	
COC(=O)c1cc(=O)[nH]c(=O)[nH]1	> 100 µM	
Nc1ccc(S(=O)(=O)c2ccc(NCN3C(=O)NC(=O)C(=O)C3=O)cc2)cc1	> 100 µM	
Cc1ccc2c(c1)-c1c3c(nn1-c1ccccc1)-c1ccccc1SC3O2 (stereo not drawn)	> 100 µM	
Cc1c(Cl)cccc1C(=O)Nc1nc2c(s1)CN(C(=O)c1ccc(C(F)(F)F)cc1)CC2	> 50 µM	272 nM
COc1cc(OC)c2nc(C)c3c(c2c1)SCC3	55 µM	
CCCCCCCC/C=C\CCCCCCC/C=C1\C[C@](/C=C/C(=O)OC)(CO)OC1=O	28.1 µM	
CC1=C(C(=O)Nc2ccc3n[nH]c(C)c3c2)C(c2ccc(C(F)(F)F)cc2)CC(=O)N1 (stereo not drawn)	> 25 µM	> 25000 nM
O=C(Nc1ccc(Br)cc1F)c1cc(I)ccc1O	> 100 µM	2510 nM
Cc1[nH]c2ccccc2c1CCCO	> 100 µM	> 100000 nM
C=C1CC2OC(=O)C(=C)C2C(O)C2C(=C)CCC12 (stereo not drawn)	24.2 µM	
C[C@H]1CC[C@@]2(NC1)O[C@H]1C[C@H]3[C@@H]4CC[C@H]5C[C@@H](O)CC[C@]5(C)[C@H]4CC[C@]3(C)[C@H]1[C@@H]2C	50 µM and > 100 µM	28800 nM
O=c1cnn(C2OC(CO)C(O)C2O)c(=S)[nH]1 (stereo not drawn)	> 100 µM	
O=C(C/C(=N/O)C(=O)NC1=C(Cl)C(=O)c2ccccc2C1=O)CC(c1ccccc1)c1c(O)c2ccccc2oc1=O (stereo not drawn)	66 µM	
O=C1C(Nc2ccc(Cl)cc2)=C(I)C(=O)c2ncccc21	13.1 µM	3080 nM
OC(CCNC12CC3CC(CC(C3)C1)C2)c1ccccc1 (stereo not drawn)	> 100 µM	
O=S(Nc1ccccc1)c1ccc(N2CCOCC2)cc1 (stereo not drawn)	> 100 µM	
CN(C)CCN1C(=O)c2c(c3c4ccccc4n4c3c3c2c2ccccc2n3C2CC(O)C(O)C4(C)O2)C1=O (stereo not drawn)	11.6 µM	1970 nM
CN(C)c1nc(N)nc(CS)n1	> 100 µM	

Compound	TGI	GI50
O=C1OCC2=C1C(c1cccc(Cl)c1)c1cc3c(cc1N2CCO)OCCO3 (stereo not drawn)	> 100 µM	796 nM
NCCCC[C@@H]1NC(=O)[C@H]2CCCN2C(=O)[C@H](Cc2ccccc2)CNC(=O)[C@H](Cc2ccccc2)NC1=O	> 37.5 µM	> 37500 nM
CCOC(C[C@H](O[Si](C)(C)C(C)(C)C)[C@H]1COC(=S)S1)OCC	> 100 µM	
CC1=C(c2cccc(O)c2)[C@H](c2ccc(OCCN3CC(CF)C3)cc2)Oc2ccc(O)cc21	23.9 µM	11700 nM
COc1ccc2c3c1OC1C(=O)C=CC4(CC2)N(C)CCC314 (stereo not drawn)	> 100 µM	
COc1ccc2c(c1)c(CC(=O)[Se]C)c(C)n2C(=O)c1ccc(Cl)cc1	> 0.921 µM	> 421 nM
O=C1NNC2(C(=O)N1)c1ccccc1-c1ccccc12	> 10 µM	
O=C1NC(=O)C(C(CC(=O)c2ccc([N+](=O)[O-])cc2)c2ccccc2)C(=O)N1 (stereo not drawn)	> 100 µM	
CSC1=C(N)C(=O)c2[nH]cc(CO)c2C1=N	0.313 µM	173 nM
NC(=O)N/N=C1/CCC(O)CC1CC(=O)O (stereo not drawn)	> 100 µM	
O=[N+]([O-])c1ccc2sc(C=Nc3cnccn3)cc2c1	> 100 µM	
CN(C)C(=O)OC1C(=O)N(C)c2ccc(Cl)cc2C2(c3ccccc3)N1C2(Cl)Cl (stereo not drawn)	> 100 µM	
N/N=C(/C(=O)Nc1cccc(Cl)c1)C(C(=O)c1ccc(O)cc1O)C1OC(=O)c2ccccc21 (stereo not drawn)	> 100 µM	
C[C@@H]1[C@H](C)N1CC(O)Cn1ccnc1[N+](=O)[O-] (stereo partly drawn)	> 100 µM	
C[C@H](OCc1ccccc1)C(=O)N1CCS(=O)(=O)N2CCC[C@@H]2C1=O	> 100 µM	
COC(C(=O)NN)c1ccccc1 (stereo not drawn)	> 100 µM	
O=S(=O)(c1ccc(NC2=NC(c3ccc(O)cc3)(c3ccccc3O)c3ccccc32)cc1)c1ccc(NC2=NC(c3ccc(O)cc3)(c3ccccc3O)c3ccccc32)cc1 (stereo not drawn)	23.1 µM	
O=[N+]([O-])c1ccc(-n2nnc(C3=NCCN3)c2-c2ccccc2)cc1	> 100 µM	
CC(C)(C)C(=O)OCC1C(=O)OCC1C(=O)N1Cc2cc3ccccc3nc2C1 (stereo not drawn)	31.7 µM	
O=C1CCCCC1S(=O)(=O)c1ccccc1 (stereo not drawn)	> 100 µM	
CC(=O)NCCC1CN(C(=O)/C=C/I)c2ccccc21 (stereo not drawn)	27.4 µM	
CN1CCN(C(=O)C(C)(C)c2ccc(C(=O)Nc3cn4cc(-c5ccncc5)ccc4n3)cc2)CC1	6.42 µM	338 nM
Cc1nc(Nc2ccccc2)sc1C(=O)CC(=O)C(=O)Nc1c(C(C)C)cccc1C(C)C	> 100 µM	
Cc1ccc(S(=O)(=O)n2c3ccc(Br)cc3c3nc4ccccc4nc32)cc1	> 100 µM	

Compound	TGI	GI50
Cc1ccc(OCC2OC(n3cnc4nc(N)nc(Cl)c43)CC2Oc2ccc(C)cc2)cc1 (stereo not drawn)	53.9 µM	
CC[C@@]1(O)C(=O)OCc2c1cc1n(c2=O)Cc2cc3cc4c(cc3nc2-1)OCO4	1.12 µM	
COc1cc2c[n+](C)c3c4cc(OC)c(OC(C)C)cc4ccc3c2cc1OC	> 100 µM	
Cc1csc(NC23CC4CC(CC(C4)C2)C3)[n+]1C(P(=O)([O-])O)P(=O)(O)O (stereo not drawn)	> 100 µM	
Cc1cccc(/C=N/NC(=S)N2CCCC2)n1	0.571 µM	2100 nM
Cc1cc(NC(=O)NC(=O)c2ccccc2NC(=O)C(C)N)ccc1Oc1ncc(Br)cn1 (stereo not drawn)	60.8 µM	
Cc1cc2c(cc1Cl)SC1=NN(C)C(C)N1S2(=O)=O (stereo not drawn)	> 100 µM	> 100000 nM
O=C1NC(Nc2ccccc2)=NC(C(F)(F)F)(C(F)(F)F)N1	> 100 µM	
COc1cc(OC)c(C/C=C/c2ccccc2)cc1O	29.4 µM	
CCCCOC(=O)C(NC(C(=O)OCCCC)c1cc(C(C)(C)C)c(O)c(C(C)(C)C)c1)c1cc(C(C)(C)C)c(O)c(C(C)(C)C)c1 (stereo not drawn)	> 100 µM	
CC1=NN(C(=O)c2ccccc2O)C(=O)/C1=C/c1ccc(O)cc1	> 100 µM	
COc1ccc(/C=C/c2cc(OC)c(OC)c(OC)c2)cc1	74.1 µM	
O=C1C[C@@H](C(=O)OCc2ccccc2)NC(=O)C[C@@H](C(=O)OCc2ccccc2)NC(=O)C[C@@H](C(=O)OCc2ccccc2)N1	> 100 µM	
Cc1cc(NCCCN(C)C)c2ccc3c(ccc4c(NCCCN(C)C)cc(C)nc43)c2n1	0.566 µM	204 nM
COc1ccc(CCN2CC=Cn3c2nc2ccccc2c3=O)cc1	> 100 µM	63.3 nM
CC1(C)C2CCC13C(=O)C1OC3(C2)C2C(=O)c3ccccc3C(=O)C12 (stereo not drawn)	> 100 µM	> 100000 nM
Cc1cc2c(C(C)C)c(O)c(O)cc2c(O)c1-c1c(C)cc2c(C(C)C)c(O)c(O)cc2c1O	61.7 µM	22900 nM
CC1CCC/C1=C(/I)C(=O)c1ccccc1 (stereo not drawn)	> 100 µM	
NC(=O)NNc1nc(-c2ccccc2)cs1	> 100 µM	
CN(C(=O)C12C3C4C1C1C2C3C41C(N)=O)C(C)(C)C (stereo not drawn)	> 100 µM	
O=C1C(Cl)=C(OCCCl)C(=O)c2c(O)ccc(O)c21	29.6 µM	
COc1ccc2c(CN3CCCC[C@H]3C(=O)O)cc3cc4c(cc3c2c1)OCO4	38.7 µM	4310 nM
NS(=O)(=O)c1ccc(/C=C/c2ccc(F)cc2)cc1	> 100 µM	
COc1cc2nc(N3CCCC3)nc(NCc3ccccc3)c2cc1OC	18 µM	5110 nM
